Here are results for 104 compounds from PubChem BioAssay AID1347073 (National Center for Advancing Translational Sciences (NCATS), 2019).

The whole screen tested about 45,000 compounds, of which about 200 (0.44%) were called active. About 7% were inconclusive and are not listed. The call rests on the fitted dose curve; in most records, active means well fitted activation curve with a large enough effect; inconclusive means small, poorly fitted or top-dose-only effect; inactive means no such curve, though single readings can be large or run the other way. Some of the results follow.

The assay in a line: qHTS of TDP-43 Inhibitors: NCGC Sytravon Library Screen. Further: 0% is about no effect; nearly all actives have a fitted effect of over 55% in size. The conditions noted are these: yeast TDP-43 toxicity rescue, BacTiter-Glo growth, 24 h; series mostly up to 46.1 µM; growth rescue (activation): at the top concentration. In a few lines:
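TDP-43-expressing yeast, pregrown in raffinose, seeded at OD600 0.02 in galactose medium with compound for 24 hr at 30 deg C. Growth read by BacTiter-Glo luminescence, so rescue of toxicity appears as activation.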
With `Cc1ccc(C(=O)C2=C(O)C(=O)N(Cc3cccnc3)C2c2ccc(Cl)cc2)o1` (centres undefined), the “growth rescue (activation)” value was inactive: 11.2%.
Consider `O=C(CNCCO)N1N=C(c2cccs2)CC1c1cccs1` (centres undefined), for which the “growth rescue (activation)” value is inactive: 6.56%.
The value for `CC(=C/C(=O)O)/C(=C\c1ccc(Br)o1)C(=O)O` was inactive: -14.3%; that for `O=C(O)c1ccc(-n2nc(-c3ccccc3)c3ccccc3c2=O)cc1` was inactive: 3.61%.
Under `CCCn1c(CN2CCN(C(C)=O)CC2)nc2cc(S(=O)(=O)N(C)C)ccc21` stands inactive: -46.9%; under `COc1ccc(N=C/C=C2/C=C(c3ccccc3)OC(C)(C)O2)cc1`, inactive: -8.64%; under `O=C(NCc1ccccc1Cl)c1csc([C@@H]2C[C@H](O)[C@@H](CO)O2)n1`, inactive: 0.159%.
In the case of `CCCCNC(=O)CN1C(=O)NC(Cc2ccccc2)(Cc2ccccc2)C1=O`, the “growth rescue (activation)” value is inactive: -2%.
Under `Cn1nccc1C(=O)N1CCc2c([nH]c3ccccc23)C1c1ccc(F)cc1` (centres undefined) stands inactive: 0.776%.
The value for `Cc1ccc(S(=O)(=O)CCC(=O)Nc2nc3c(s2)CCCC3)cc1` was inactive: 16%; that for `O=C(O)c1ccc(C(=O)c2ccc3c(c2)C(=O)N(CCO)C3=O)cc1` was inactive: -6.46%; that for `Cc1onc(-c2ccccc2Cl)c1C(=O)OCC(=O)c1c(N)n(C)c(=O)n(C)c1=O` was inactive: -2.65%.
For the compound `CC(NC(=O)c1ccc2c(c1)OCO2)c1ccccc1` (centres undefined), the “growth rescue (activation)” value is inactive: -1.02%.
For the compound `C=CCn1c[n+](CC(=O)c2ccc(Br)s2)c2ccccc21`, the “growth rescue (activation)” value was inactive: -16.2%.
`Cn1c(N)c(C(=O)COC(=O)COc2cc(Cl)c(Cl)cc2Cl)c(=O)n(C)c1=O`: the “growth rescue (activation)” value is inactive: 3%.
Under `COc1ccc(C2c3ccc4ccccc4c3Oc3ncn(CCCN(C)C)c(=N)c32)cc1` (centres undefined) stands inactive: -14.7%; under `CN(C(=O)CCNC(=O)Cn1ccc2ccccc2c1=O)c1ccc(Br)cc1`, inactive: 9.63%; under `Nn1cnnc1SCC(=O)Nc1ccc2c(c1)OCO2`, inactive: -0.725%.
`CCCNC(=O)Cn1nc(C(F)(F)F)cc1C`: the “growth rescue (activation)” value is inactive: -13.1%.
The value for `COc1cc([N+](=O)[O-])cc(/C=N/NC(=O)C(C)Nc2cccc3ccccc23)c1O` (centres undefined) was inactive: 28.2%; that for `COc1ccc(OC)c(/C=N/NC(=O)CN2CCSCC2)c1` was inactive: -1.78%.
Turning to `CCCCN(C(=O)c1ccc(NC(=O)C(C)C)cc1)c1ccccc1`, the “growth rescue (activation)” value was inactive: 13.5%.
Regarding `O=C(NCC1(O)CCCCC1)C1CCC(=O)N(Cc2ccccc2F)C1` (centres undefined), the “growth rescue (activation)” value is inactive: 20.1%.
Under `CCC(=O)Nc1ccc(NC(=S)NC(=O)c2oc3ccccc3c2C)cc1` stands inactive: 2.89%.
The value for `Cc1ccccc1OCC(=O)Nc1cnn(CCCC(=O)O)c1` was inactive: 8.31%; that for `COCCNc1nc(NCc2ccccc2OC)c2sccc2n1` was inactive: 6.18%; that for `CCOC(=O)C1CN(S(=O)(=O)c2ccc(Cl)cc2)c2cc(S(=O)(=O)CC)ccc2O1` (centres undefined) was inactive: 3.32%.
The value for `CCOC(=O)N1CCC(N2CCCC(C(=O)c3cc(F)ccc3OC)C2)CC1` (centres undefined) was inactive: -8.75%; that for `COc1ccccc1-c1csc(NC(=O)c2cc(-c3cccs3)nc3ccccc23)n1` was inactive: 8.15%.
As for `COc1ccc(CCC(=O)N2CCN(c3ccc([N+](=O)[O-])cc3)CC2)cc1OC`, the “growth rescue (activation)” value is inactive: 13.5%.
For the compound `O=C(Nc1ccc(S(=O)(=O)Nc2nccs2)cc1)c1ccc(S(=O)(=O)N2CCOCC2)cc1`, the “growth rescue (activation)” value was inactive: 10.7%.
As to `COC(=O)CCC(=O)Nc1c(C)n(C)n(-c2ccccc2)c1=O`, the “growth rescue (activation)” value is inactive: -7.5%.
With `O=C(/C=C\Nc1ccc2c(c1)OCO2)c1ccc(Cl)s1`, the “growth rescue (activation)” value was inactive: 9.35%.
The value for `CN(c1ccc(C(=O)NC2CCCC2)cc1)S(=O)(=O)c1ccccc1` was inactive: 12.5%.
The value for `O=C1N(Cc2cccc(Cl)c2)C[C@@H]2C[C@@H](c3cccc4cccnc34)N3CCC[C@@]123` was inactive: -9.56%; that for `CCn1c(SCC(=O)Nc2ccc3c(c2)OCCO3)nnc1-c1ccncc1` was inactive: 6.51%.
The value for `CCOC(=O)C1=C(C)C2C3C(=O)N(c4ccccc4C)C(=O)C3C1(C)C1C(=O)N(c3ccccc3C)C(=O)C21` (centres undefined) was inactive: -7.67%; that for `COc1ccc2c(C)cc(SCn3nnc4ccccc4c3=O)nc2c1` was inactive: 22.5%; that for `Cn1nc([N+](=O)[O-])c(C(C#N)c2nc3ccccc3n2C)c(Cl)c1=O` (centres undefined) was inactive: 7.47%.
As to `O=C(CCn1c2c(c3ccccc31)CCCC2)NNC(=O)c1ccccc1[N+](=O)[O-]`, the “growth rescue (activation)” value is inactive: 12.8%.
Under `COCCN(C(=S)Nc1ccc(C)cc1)C(C)c1cccnc1` (centres undefined) stands inactive: 5.57%; under `Cc1nnc(CN(C)Cc2cn[nH]c2-c2ccc(-c3ccccc3)cc2)o1`, inactive: 13.3%; under `O=C(Nc1cccc(Cl)c1)c1ccc2c(=O)n3c(nc2c1)CCCCC3`, inactive: -35.4%.
Under `O=C(NC1CCN(S(=O)(=O)c2ccccc2F)CC1)c1ccco1` stands inactive: 16.5%; under `COCCNC(=O)C(=O)NNS(=O)(=O)c1ccc(Cl)cc1`, inactive: 5.91%; under `Cc1ccc2c(Cl)c(C(=O)NCCc3ccccc3)sc2c1`, inactive: 5.63%.
`CCOc1ccc2c(c1)nc(NCCCO)n2Cc1ccccc1`: the “growth rescue (activation)” value is inactive: 0.255%.
The value for `O=C(NCC(O)c1ccc([N+](=O)[O-])cc1)C1=COCCO1` (centres undefined) was inactive: 13.5%.
Regarding `Cn1nnnc1SCC(=O)Nc1sccc1C(N)=O`, the “growth rescue (activation)” value was inactive: 6.11%.
As to `C/C(=N\NC(=O)c1ccoc1C)c1cccc2ccccc12`, the “growth rescue (activation)” value is inactive: 17.4%.
Under `Cc1ccc(CCN2CC(C(=O)NCc3ccc4c(c3)OCO4)CC2=O)cc1` (centres undefined) stands inactive: 19.1%.
With `COc1ccc(OC)c(NC(=O)Nc2nnc(COCCO)s2)c1`, the “growth rescue (activation)” value was inactive: 1.4%.
Regarding `Cc1ccc(-n2ncc(-c3nnc(SCC(=O)NC4CCCC4)o3)c2N)cc1C`, the “growth rescue (activation)” value is inactive: 23.5%.
Under `CCCCNC(=O)C1(C)CCCCN1Cc1ccc(-c2ccccc2)cc1` (centres undefined) stands inactive: 13.8%.
The value for `Cc1cc(SCC(=O)N/N=C/c2ccccc2C(=O)O)c(C)cc1Br` was inactive: 5.49%; that for `NS(=O)(=O)c1ccc(NC(=O)c2ccc(F)cc2F)c(NC(=O)c2ccc(F)cc2F)c1` was inactive: 1.13%.
For `COc1cc(NC(=O)c2cc3ccccc3o2)ccc1NC(=O)c1ccco1`, the “growth rescue (activation)” value was inactive: -12.7%.
With `CCc1nc2ccc(C(=O)N3CCN(C(=O)c4ccco4)CC3)cn2c1N(C)C(=O)C1CCCCC1`, the “growth rescue (activation)” value is inactive: 4.4%.
The value for `CCOc1ccc(/C=C/C(=O)Nc2ccc3[nH]c(=O)[nH]c3c2)cc1` was inactive: 7.24%; that for `NNC(=O)c1cc(Cl)ccc1Cl` was inactive: 17.8%.
For the compound `CC(=O)Nc1ccc(Sc2ccccc2C(=O)O)cc1`, the “growth rescue (activation)” value is inactive: -31.7%.
Under `CCOCCc1nnc(NC(=O)CCS(=O)(=O)c2ccccc2)s1` stands inactive: 18.1%; under `CC(C)[C@H](NC(=O)OCc1ccccc1)C(=O)OCC(=O)Nc1c(F)cccc1F`, inactive: 14.9%; under `COc1ccc(CCNC(=O)Cn2c(=O)n(-c3ccc(F)cc3F)c(=O)c3sccc32)cc1OC`, inactive: 6.26%.
Under `CCn1cc(C(=O)NC2CCCC2)c(=O)c2cc(S(=O)(=O)N3CCOCC3)ccc21` stands inactive: 4.52%.
Under `Cc1ccccc1C(=O)NCC(=O)N1CCN(c2ccccn2)CC1` stands inactive: 4.02%.
For the compound `Cc1nc2ccccn2c1C(=O)c1ccccc1`, the “growth rescue (activation)” value is inactive: 11.6%.
Under `Cc1ccc(C(C(=O)NC2CCCCC2)N(C(=O)Cc2c[nH]c3ccccc23)c2ccccc2C)o1` (centres undefined) stands inactive: 8.58%; under `NC1=NC2(CCCC2)n2c(nc3ccccc32)N1`, inactive: -6.15%.
The value for `CC1=C(C(=O)OCc2ccccc2)C(c2ccccn2)c2c(n(C)c(=O)n(C)c2=O)N1` (centres undefined) was inactive: 3.85%.
The value for `CCOC(=O)/C(=N/Nc1ccccc1OC)N1CCCc2ccccc21` was inactive: 7.97%; that for `O=C(Nc1ccc(C(=O)O)cc1)Nc1ccc(F)cc1F` was inactive: 13.7%.
As for `Cc1cc(C(=O)OC(C(=O)Nc2ccc(C)c(Cl)c2)c2ccccc2)c(C)o1` (centres undefined), the “growth rescue (activation)” value is inactive: -5.48%.
Under `CCOC(=O)N1CCN(C(=O)C2CCCN(c3ncnc4c3nc3n4CCCCC3)C2)CC1` (centres undefined) stands inactive: 7.39%.
Consider `Cc1cc([N+](=O)[O-])nn1CC(=O)Nc1ccc(Cl)cn1`, for which the “growth rescue (activation)” value is inactive: 1.23%.
Under `Cc1ccc(S(=O)(=O)N2CCCCCC2)cc1C(=O)Nc1cccnc1` stands inactive: -14.2%.
Under `CCc1nc2ccc(C(=O)N3CCN(C(C)=O)CC3)cn2c1N(CCC(C)C)CCN(C)C` stands inactive: -4.39%.
Under `CCCCN(C=O)c1c(CC)nc2c(OCC(=O)c3ccc(F)cc3)cccn12` stands inactive: 1.6%; under `CC(C(=O)O)n1cnc2sc3c(c2c1=O)CCCC3` (centres undefined), inactive: 3.86%; under `Cc1onc(-c2ccccc2Cl)c1C(=O)Nc1ccccc1C(N)=O`, inactive: -32.2%.
On to `CC(=O)c1cccc(CN2CCC(n3nccc3NC(=O)CCCc3ccccc3)CC2)c1`, for which the “growth rescue (activation)” value is inactive: -6.29%.
As for `CCNC(=O)C1CCCN(C(=O)c2cnc3ccccc3n2)CC1` (centres undefined), the “growth rescue (activation)” value was inactive: -0.283%.
Consider `O=C(Cc1ccccc1)Nc1ccc(S(=O)(=O)N2CCOCC2)cc1`, for which the “growth rescue (activation)” value is inactive: 7.23%.
For the compound `O=C(NCc1ccco1)C(c1ccc(F)cc1)N(C(=O)Cc1cccs1)c1cccnc1` (centres undefined), the “growth rescue (activation)” value was inactive: -4.91%.
The value for `N#Cc1c(NC(=S)NC(=O)c2ccccc2)sc2c1CCCC2` was inactive: 16.4%.
Under `CC(C)c1ccc(N(CC(=O)NCCc2ccccc2)C(=O)c2csnn2)cc1` stands inactive: 8.12%; under `COc1cc(C2SCC(=O)N2c2c(C)n(C)n(-c3ccccc3)c2=O)ccc1O` (centres undefined), inactive: 5.61%.
On to `COCCNC(=O)C1(C)CCCN(C(=O)c2c(F)ccc(C)c2F)C1` (centres undefined), for which the “growth rescue (activation)” value was inactive: 8.74%.
For the compound `CC1=NCCN1S(=O)(=O)c1c(C(C)C)cc(C(C)C)cc1C(C)C`, the “growth rescue (activation)” value is inactive: -1.26%.
As to `CCOc1cc(CNc2ccc(N(C)C)cc2)cc(Br)c1OCC(=O)NC(C)(C)C`, the “growth rescue (activation)” value was inactive: 13.9%.
Regarding `Cc1nc2c(OCc3ccc(C#N)cc3)cccn2c1N(C)C(=O)CCC1CCCC1`, the “growth rescue (activation)” value was inactive: -6.2%.
Under `O=C(CSc1nnnn1-c1cccnc1)Nc1cccc(Cl)c1` stands inactive: 7.87%; under `Cc1cccc(NC(=O)COC(=O)c2ccc3c(=O)n4c(nc3c2)CCC4)c1`, inactive: 21%.
The value for `CSc1ccccc1C(=O)C1CCCN(C(=O)c2cc(C(C)C)no2)C1` (centres undefined) was inactive: 22.9%.
Take `COc1ccc(NC(=O)c2cc(C3CCCCN3C(=O)C3CCCCC3)on2)c(C)c1` (centres undefined): the “growth rescue (activation)” value was inactive: 7.4%.
For `CCNc1nc(-c2ccc(OC(F)F)cc2)c(C)s1`, the “growth rescue (activation)” value was inactive: 12.3%.
For `Oc1c(Br)cc(Br)cc1/C=N/Nc1ccc(Cl)nn1`, the “growth rescue (activation)” value was inactive: -33.7%.
With `COC(=O)Cc1ccc(OCC(=O)NC2CCCC2)cc1`, the “growth rescue (activation)” value is inactive: 19.4%.
Under `Cc1ccc(CNC(=O)C2(S(=O)(=O)c3ccc(C)cc3)CC2)cc1` stands inactive: 18.3%.
For `O=[N+]([O-])c1cccc(/C([O-])=C(/C(=S)Nc2cccc3ccccc23)[n+]2ccccc2)c1`, the “growth rescue (activation)” value was inactive: 13.9%.
Under `COc1ccc(NC(=O)COC(=O)c2ccc(Cl)c(S(N)(=O)=O)c2)c([N+](=O)[O-])c1` stands inactive: 0.437%; under `CC(NS(=O)(=O)c1ccc(OCC(=O)Nc2cccc([N+](=O)[O-])c2)cc1)c1ccccc1` (centres undefined), inactive: -7.39%; under `O=c1[nH]n2c(C(F)(F)F)cc(C3CC3)nc2c1N=Nc1ccccc1`, inactive: -4.6%.
As for `O=C1NC(c2ccc(-c3ccccc3[N+](=O)[O-])o2)C(C(=O)c2ccc(F)cc2)C(O)(C(F)(F)F)N1` (centres undefined), the “growth rescue (activation)” value was inactive: 18.5%.
